# According to US12280114B2, “Extraction of plant source “medicinal soup” and manual preparation of “herbal medicine” and related products” (BEIJING BAISHIHEKANG PHARMACEUTICAL TECHNOLOGY (BSJPHARMA) …, priority 2018, dated 2025):
# Experiments:
# [1] = tested on: A549 cells; experiment: RT-qPCR detection of nucleic acid delivered by lipid into A549 cells; type: cell-based, human; settings: HJT-sRNA-m7 double-stranded RNA; A549 cells; boiling method
# [2] = tested on: A549 cells; experiment: Flow cytometry detection of nucleic acid delivery by lipid into A549 cells; type: cell-based, human; settings: boiling method, 6 hours
# Experimental: Experimental methods: PGY-sRNA-6-FAM was dissolved in 100 μl water, mixed with 4 μl lipid, and prepared by boiling method. Then the mixture was dropped into A549 cells, and after 6 hours of co-incubation, the samples were collected for detection as follows: firstly wash three times with PBS, then digest with trypsin for 3 minutes and remove trypsin, wash with PBS again and then blow down the cells. The detection was performed using Accuri® C6 instrument.
# Experimental Method: PGY-sRNA-6-FAM was dissolved in 100 μl water, and mixed with 4 μl lipid, and prepared into lipid-sRNA mixture by boiling method. Then, the mixture was dropped into A549 cells, and after 6 hours of co-incubation, the samples were collected and washed three times with PBS, then digested with trypsin into single cells, washed with re-suspended with PBS and then blown down for Accuri® C6 instrument detection.
# Experimental Method: FAM-sRNA was dissolved in 100 μl water, and mixed with 4 μl lipid, prepared by boiling method. Then, the lipid-sRNA mixture was dropped into A549 cells, and after 6 hours of co-incubation, the samples were collected and washed three times with PBS, then digested into single cells with trypsin, re-suspended with PBS and then used Accuri® C6 instrument to detect relative entry amount.
# [3] = tested on: A549 cells; experiment: Confocal fluorescence microscopy of lipid-delivered nucleic acid in A549 cells; type: cell-based, human; settings: boiling method; 6 hours
# Experimental: […] Then the mixture was dropped into A549 cells, and after 6 hours of co-incubation, the samples were washed three times with PBS, fixed with 4% paraformaldehyde, washed three times with PBS, stained with Alexa Fluor® 488 phalloidin for 30 min, washed 3 times with PBS, and stained with DAPI for 5 min, washed with PBS, and then sealed.
# […] Then, the mixture was dropped into A549 cells, and after 6 hours of co-incubation, the samples were washed three times with PBS, fixed with 4% paraformaldehyde, washed three times with PBS, stained with Alexa Fluor® 488 phalloidin for 30 min, washed 3 times with PBS, and stained with DAPI for 5 min, PBS washed, and then sealed.
# [4] = In vivo delivery of small RNA into mouse blood, stomach, small intestine and liver via gavage (RT-qPCR); settings: Example 11; 10 μL single lipid + sRNA 1 nmol each, heating method; 12 hours
smiles,measurement,setting,value
"CCCCCCCC/C=C\CCCCCCCCCCCCCC(=O)O[C@H](COC(=O)CCCCCCCCCCCCCC)COP(=O)(O)OCCN [lipid No. 64, PE(15:0/24:1 (15Z))]","delivery effect of lipid, times that of RNAiMAX (RT-qPCR)",[1],about 3
same,efficiency of delivering PGY-sRNA-6 single-stranded RNA relative to positive control RNAiMAX (flow cytometry),[2],½
same,entry of PGY-sRNA-6-Cy3 into A549 cells (confocal microscopy),[3],could effectively deliver single-stranded RNA into A549 cells
same,delivery of sRNA single-stranded nucleic acid into mouse blood via oral administration,[4],the delivery effect was better than POPC and Lipofectamine RNAiMAX
